# “And” between values parts separate entries of the source, which are not always exact repeats. Equal entries are not always repeated. The list shows a part of the results. Further columns of the screen follow, without active or inactive calls.
# Legend:
# Assay in all cases: Primary Screen for Target Class Profiling of Small Molecule Inhibitors of Methyltransferases
# [1] = molecular target: Glycine N-methyltransferase (Homo sapiens) (UniProt Q14749); conditions: purified enzyme, MTase-Glo SAH luminescence; measured here: GNMT inhibition; at 40 µM; stronger effect = lower value
# In short: (§1)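 Each enzyme was assayed with SAM and its substrate. SAH formation detected by MTase-Glo luminescence; single-point 40 uM screen[…].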
# [2] = molecular target: Guanidinoacetate N-methyltransferase (Homo sapiens) (UniProt Q14353); conditions: purified enzyme, MTase-Glo SAH luminescence; measured here: GAMT inhibition; at 40 µM; stronger effect = lower value
# In short: as §1
# [3] = molecular target: Histamine N-methyltransferase (Homo sapiens) (UniProt P50135); conditions: purified enzyme, MTase-Glo SAH luminescence; measured here: HNMT inhibition; at 40 µM; stronger effect = lower value
# In short: as §1
# [4] = molecular target: Nicotinamide N-methyltransferase (Homo sapiens) (UniProt P40261); conditions: purified enzyme, MTase-Glo SAH luminescence; measured here: NNMT inhibition; at 40 µM; stronger effect = lower value
# In short: as §1
# [5] = molecular target: Phenylethanolamine N-methyltransferase (Homo sapiens) (UniProt P11086); conditions: purified enzyme, MTase-Glo SAH luminescence; measured here: PNMT inhibition; at 40 µM; stronger effect = lower value
# In short: as §1
# % is set by controls: 0 for no effect and ±100 for the full control effect.
SMILES,"activity change, negative = inhibition [1]","activity change, negative = inhibition [2]","activity change, negative = inhibition [3]","activity change, negative = inhibition [4]","activity change, negative = inhibition [5]"
O=C1NC[C@H]2CN(C3CCOCC3)CCN12,-3.74%,-5.63%,-1.23%,-9.16%,-5.7%
COCCCNC(=O)N1Cc2ccccc2-n2cccc2C1c1cccc(Cl)c1 (stereo not drawn),12.3%,4.33%,5.9%,1.97%,9.83%
O=C1C=CC(=O)C=C1,-0.763%,13.8%,3.41%,-2.21%,6.01%
COc1ccc(C2c3cccn3-c3ccccc3CN2C(=O)NC2CCCC2)cc1OC (stereo not drawn),2.11%,0%,-4.3%,-9.91%,-0.566%
CCc1ccc(C2c3cccn3-c3ccccc3CN2C(=O)Nc2ccccc2F)cc1 (stereo not drawn),11.8%,0%,5.76%,-0.222%,5.8%
CCC1c2cccn2-c2ccccc2CN1C(=O)Nc1cccc(OC)c1 (stereo not drawn),2.92%,0%,6.13%,-0.673%,7.39%
CSCC(=O)Nc1ccc(=O)n2c1[C@@H]1C[C@@H](CN(C(=O)NC3CCCCC3)C1)C2,-6.82%,-8.03%,-1.96%,-11.3%,-6.56%
O=C(Nc1ccc(=O)n2c1[C@@H]1C[C@@H](CN(S(=O)(=O)c3ccccc3)C1)C2)c1ccco1,-4.5%,-2.65%,-1.49%,-3.96%,-2.18%
NN=C(N)N,3.51% and 3.31%,7.67% and -11%,-1.11% and -11.8%,-2.25% and -8.77%,7.51% and -0.705%
Cc1sc2c(c1C)C(c1ccc(Cl)cc1)=NC(CC(=O)Nc1ccc(O)cc1)c1nnc(C)n1-2 (stereo not drawn),-11.3% and -6.45%,–,3.43% and 5.97%,-23%,21.1%
CCOc1ccc(C2c3cccn3-c3ccccc3CN2C(=O)NC2CCCC2)cc1 (stereo not drawn),-2.26%,3.29%,2.58%,-4.91%,1.98%
CCOc1ccc(NC(=O)N2Cc3ccccc3-n3cccc3C2c2ccc(Cl)cc2)cc1 (stereo not drawn),-1.21%,4%,5.74%,3.68%,0.733%
CCOc1ccccc1NC(=O)N1Cc2ccccc2-n2cccc2C1c1ccc(OC)cc1 (stereo not drawn),11.6%,0%,5.41%,-1.52%,5.04%
Cc1ccc(NC(=O)N2Cc3ccccc3-n3cccc3C2c2ccccc2)cc1 (stereo not drawn),8.12%,-0.265%,0.377%,-8.52%,-0.991%
NC1CCc2cc(O)c(O)cc2C1 (stereo not drawn),-45%,13.8%,-5.7%,-7.11%,-5.03%
CCC1c2cccn2-c2ccccc2CN1C(=O)Nc1ccccc1Br (stereo not drawn),-9.64%,0.096%,-4.9%,-6.37%,1.12%
O=C(Nc1ccc2n(c1=O)C[C@H]1C[C@@H]2CN(CC2CCCCC2)C1)C1CCCCC1,-14.8%,-7.54%,-13.3%,-19.3%,-15.2%
CN1C(=O)[C@H]2CN(Cc3ccsc3)C[C@H]2C1=O,-2.39%,-1.82%,-0.953%,-5.92%,-0.156%
CC(=O)NC[C@H]1C[C@@H]2CCN1C[C@@H]2c1cc(-c2ccc3ccccc3c2)nn1C,-9.15%,-1.77%,-65.9%,-8.7%,-22.3%
COc1ccccc1NC(=O)N1Cc2ccccc2-n2cccc2C1c1ccc(C)cc1 (stereo not drawn),4.27%,4.27%,-2.96%,-4.68%,1.03%
Cc1ccc(NC(=O)N2Cc3ccccc3-n3cccc3C2c2ccccc2Cl)cc1 (stereo not drawn),5.13%,5.6%,-3.37%,-1.83%,2.39%
CCOc1ccc(NC(=O)N2Cc3ccccc3-n3cccc3C2c2cc(F)cc(F)c2)cc1 (stereo not drawn),5.49%,0%,5.16%,4.28%,2.48%
COC(=O)C1(C)CCC(O)C2(C)c3cc(O)c(C(C)C)cc3C(O)C(OC(C)=O)C12 (stereo not drawn),2.8%,4.17%,10.2%,-8.85%,-0.674%
Cc1sc2c(c1C)C(c1ccc(Cl)cc1)=NC(CC(N)=O)c1nnc(C)n1-2 (stereo not drawn),-20.3%,–,-3.02%,-21.9%,18.5%
Cc1cnc(N2CC3CCC(C2)N3CC(F)(F)F)c([N+](=O)[O-])c1,-7.42%,-9.79%,-4.84%,-19.2%,-11.6%
O=C(NCc1ccc(F)cc1)N1Cc2ccccc2-n2cccc2C1c1ccc(Cl)cc1 (stereo not drawn),-0.772%,0%,-0.982%,-2.59%,4.3%
Cc1ncc2c(n1)C[C@@H]1CC[C@H]2N1C(=O)C1CCC1,-4.82%,-4.57%,-2.85%,-9.64%,-6.29%
Cc1ccccc1NC(=O)N1Cc2ccccc2-n2cccc2C1c1cccs1 (stereo not drawn),6.68%,0%,1.53%,-1.94%,4.16%
CCOc1ccc(C2c3cccn3-c3ccccc3CN2C(=O)Nc2cccc(Cl)c2)cc1 (stereo not drawn),-7.16%,0%,-1.88%,-2.27%,1.27%
COC1C(O)C(C)OC(OC2C(CO)O[C@@H](O[C@@H]3CC4CCC5C(CC[C@]6(C)[C@@H](C7=CC(=O)OC7)CC[C@]56O)[C@@]4(C)[C@H](O)C3)C(O)C2O)C1O (stereo partly drawn),0%,6.72%,9.58%,-5.97%,1.66%

# From PubChem BioAssay AID1745853 (National Center for Advancing Translational Sciences (NCATS), 2022)
